From the supplement of paper PMC8728848
The list shows a part of the results.

Tests used:
Assay in all cases: glycan array binding signal (z-score within array); higher = stronger binding
Settings in all cases: glycan notation: IUPAC condensed, linker removed
Fuc(a1-2)Gal = target: Fuc(a1-2)Gal
Procedure, shortened: (§1)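 The binding signal is a Z-score computed within each array and averaged over linkers. Arrays of the same protein sequence at different concentrations or buffers were also averaged together. Data originate from 3228 arrays in the Consortium for Functional Glycomics database, kept only where the protein sequence was available.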

Fuc(a1-2)Gal(b1-3)GalNAc = target: Fuc(a1-2)Gal(b1-3)GalNAc
Procedure, shortened: as §1

[1] = target: Fuc(a1-2)Gal(b1-3)GalNAc(b1-3)Gal
Procedure, shortened: as §1

[2] = target: Fuc(a1-2)Gal(b1-3)GalNAc(b1-3)Gal(a1-4)Gal(b1-4)Glc
Procedure, shortened: as §1

[3] = target: Fuc(a1-2)Gal(b1-3)GalNAc(b1-3)Gal(b1-4)Glc
Procedure, shortened: as §1

[4] = target: Fuc(a1-2)Gal(b1-3)GalNAc(b1-4)[Neu5Ac(a2-3)]Gal(b1-4)Glc
Procedure, shortened: as §1

[5] = target: Fuc(a1-2)Gal(b1-3)[Fuc(a1-4)]GlcNAc
Procedure, shortened: as §1

Fuc(a1-2)Gal(b1-4)Glc = target: Fuc(a1-2)Gal(b1-4)Glc
Procedure, shortened: as §1

Fuc(a1-2)Gal(b1-4)GlcNAc = target: Fuc(a1-2)Gal(b1-4)GlcNAc
Procedure, shortened: as §1

[6] = target: Fuc(a1-2)Gal(b1-4)GlcNAc(b1-3)Gal(b1-4)GlcNAc
Procedure, shortened: as §1

[7] = target: Fuc(a1-2)Gal(b1-4)GlcNAc(b1-3)Gal(b1-4)GlcNAc(b1-3)Gal(b1-4)GlcNAc
Procedure, shortened: as §1

[8] = target: Fuc(a1-2)Gal(b1-4)[Fuc(a1-3)]GalNAc(b1-3)Gal(b1-4)[Fuc(a1-3)]GlcNAc
Procedure, shortened: as §1

[9] = target: Fuc(a1-2)Gal(b1-4)[Fuc(a1-3)]GalNAc(b1-3)Gal(b1-4)[Fuc(a1-3)]GlcNAc(b1-3)Gal(b1-4)[Fuc(a1-3)]GalNAc
Procedure, shortened: as §1

[10] = target: Fuc(a1-2)Gal(b1-4)[Fuc(a1-3)]GlcNAc
Procedure, shortened: as §1

Fuc(a1-2)GlcNAc = target: Fuc(a1-2)GlcNAc
Procedure, shortened: as §1

Fuc(a1-2)[Gal(a1-3)]Gal = target: Fuc(a1-2)[Gal(a1-3)]Gal
Procedure, shortened: as §1

[11] = target: Fuc(a1-2)[Gal(a1-3)]Gal(b1-3)GlcNAc
Procedure, shortened: as §1

[12] = target: Fuc(a1-2)[Gal(a1-3)]Gal(b1-4)Glc
Procedure, shortened: as §1

[13] = target: Fuc(a1-2)[Gal(a1-3)]Gal(b1-4)GlcNAc
Procedure, shortened: as §1

[14] = target: Fuc(a1-2)[Gal(a1-3)]Gal(b1-4)[Fuc(a1-3)]GlcNAc
Procedure, shortened: as §1

[15] = target: Fuc(a1-2)[Gal(a1-4)]Gal(b1-4)GalNAc
Procedure, shortened: as §1

[16] = target: Fuc(a1-2)[GalNAc(a1-3)]Gal
Procedure, shortened: as §1

[17] = target: Fuc(a1-2)[GalNAc(a1-3)]Gal(b1-3)GlcNAc
Procedure, shortened: as §1

[18] = target: Fuc(a1-2)[GalNAc(a1-3)]Gal(b1-4)Glc
Procedure, shortened: as §1

[19] = target: Fuc(a1-2)[GalNAc(a1-3)]Gal(b1-4)GlcNAc
Procedure, shortened: as §1

[20] = target: Fuc(a1-2)[GalNAc(a1-3)]Gal(b1-4)[Fuc(a1-3)]GlcNAc
Procedure, shortened: as §1

[21] = target: Fuc(a1-2)[GalNAc(a1-4)]Gal(b1-4)GlcNAc
Procedure, shortened: as §1

Fuc(a1-3)GlcNAc = target: Fuc(a1-3)GlcNAc
Procedure, shortened: as §1

[22] = target: Fuc(a1-3)[Gal(b1-4)]GlcNAc
Procedure, shortened: as §1

[23] = target: Fuc(a1-3)[Gal(b1-4)]GlcNAc(b1-4)Gal(b1-4)[Fuc(a1-3)]GlcNAc
Procedure, shortened: as §1

[24] = target: Fuc(a1-3)[Gal(b1-4)]GlcNAc(b1-4)Gal(b1-4)[Fuc(a1-3)]GlcNAc(b1-4)Gal(b1-4)[Fuc(a1-3)]GlcNAc
Procedure, shortened: as §1

[25] = target: Fuc(a1-3)[Gal3S(b1-4)]GlcNAc
Procedure, shortened: as §1

[26] = target: Fuc(a1-3)[GalNAc(b1-4)]Gal(b1-4)GlcNAc
Procedure, shortened: as §1

Fuc(a1-4)GlcNAc = target: Fuc(a1-4)GlcNAc
Procedure, shortened: as §1

Fuc(b1-3)GlcNAc = target: Fuc(b1-3)GlcNAc
Procedure, shortened: as §1

Gal(a1-2)Gal = target: Gal(a1-2)Gal
Procedure, shortened: as §1

Gal(a1-3)Gal = target: Gal(a1-3)Gal
Procedure, shortened: as §1

Gal(a1-3)Gal(b1-3)Glc = target: Gal(a1-3)Gal(b1-3)Glc
Procedure, shortened: as §1

Gal(a1-3)Gal(b1-3)GlcNAc = target: Gal(a1-3)Gal(b1-3)GlcNAc
Procedure, shortened: as §1

Gal(a1-3)Gal(b1-4)GlcNAc = target: Gal(a1-3)Gal(b1-4)GlcNAc
Procedure, shortened: as §1

[27] = target: Gal(a1-3)Gal(b1-4)[Fuc(a1-3)]GalNAc
Procedure, shortened: as §1

Gal(a1-3)GlcNAc = target: Gal(a1-3)GlcNAc
Procedure, shortened: as §1

[28] = target: Gal(a1-3)[Gal(a1-4)]Gal(b1-4)GlcNAc
Procedure, shortened: as §1

Gal(a1-4)Gal(b1-4)Gal = target: Gal(a1-4)Gal(b1-4)Gal
Procedure, shortened: as §1

Gal(a1-4)Gal(b1-4)GalNAc = target: Gal(a1-4)Gal(b1-4)GalNAc
Procedure, shortened: as §1

B1: ASA (Allium sativum) (protein)
chain: KAHEKERMGRNTPSAKLMSIAAVAAILTILASTCMARNLLTNGEGLYAGQSLNVEPYHFIMQEDCNLVLYDHSTAVWATNTDIPGKKECRAVLQSDGNFVVYDADGRPLWASHSVRGNGNYVLVLQEDGNVVIYGSDIWSTGTYVKAARGPVVVAMNGTVDGGSLIRPVIVNKNHVPVIRKVGTLSRNILRNDEGLYAGQSLDVEPYHFIMHEDCNLVLYDHSTAVWASNTDIPGKKGCKAVLQSDGNFVVYDAEGRSLWASHSVRGNGNYVLVLQEDGNVVIYGSDIWSTDTYRKSARGPVIRKVGTLAGAA
How did the “glycan array binding signal (z-score)” value (Fuc(a1-2)Gal) turn out when B1 was run?
Its value is -0.156.

And the “glycan array binding signal (z-score)” value (Fuc(a1-2)Gal(b1-3)GalNAc)?
The value was -0.144.

And the “glycan array binding signal (z-score)” value [1]?
The value was -0.217.

What about the “glycan array binding signal (z-score)” value [2] of the same binder?
Its value is 0.004.

What about the “glycan array binding signal (z-score)” value [3] of the same binder?
The value was -0.228.

And the “glycan array binding signal (z-score)” value [4]?
The value was 0.262.

And the “glycan array binding signal (z-score)” value [5]?
The value was -0.233.

What about the “glycan array binding signal (z-score)” value (Fuc(a1-2)Gal(b1-4)Glc) of the same binder?
The value was -0.213.

What about the “glycan array binding signal (z-score)” value (Fuc(a1-2)Gal(b1-4)GlcNAc) of the same binder?
The value was -0.221.

And the “glycan array binding signal (z-score)” value [6]?
Its value is -0.217.

And the “glycan array binding signal (z-score)” value [7]?
The value was -0.197.

What about the “glycan array binding signal (z-score)” value [8] of the same binder?
Its value is -0.222.

And the “glycan array binding signal (z-score)” value [9]?
Its value is -0.081.

What about the “glycan array binding signal (z-score)” value [10] of the same binder?
The value was -0.206.

And the “glycan array binding signal (z-score)” value (Fuc(a1-2)GlcNAc)?
Its value is -0.226.

And the “glycan array binding signal (z-score)” value (Fuc(a1-2)[Gal(a1-3)]Gal)?
Its value is -0.22.

What about the “glycan array binding signal (z-score)” value [11] of the same binder?
The value was -0.192.

And the “glycan array binding signal (z-score)” value [12]?
Its value is -0.206.

And the “glycan array binding signal (z-score)” value [13]?
Its value is -0.16.

And the “glycan array binding signal (z-score)” value [14]?
The value was -0.214.

What about the “glycan array binding signal (z-score)” value [15] of the same binder?
The value was -0.217.

What about the “glycan array binding signal (z-score)” value [16] of the same binder?
Its value is -0.223.

And the “glycan array binding signal (z-score)” value [17]?
Its value is -0.225.

And the “glycan array binding signal (z-score)” value [18]?
The value was -0.225.

What about the “glycan array binding signal (z-score)” value [19] of the same binder?
Its value is -0.217.

What about the “glycan array binding signal (z-score)” value [20] of the same binder?
Its value is -0.206.

What about the “glycan array binding signal (z-score)” value [21] of the same binder?
Its value is -0.209.

And the “glycan array binding signal (z-score)” value (Fuc(a1-3)GlcNAc)?
The value was -0.225.

What about the “glycan array binding signal (z-score)” value [22] of the same binder?
The value was -0.222.

What about the “glycan array binding signal (z-score)” value [23] of the same binder?
The value was -0.185.

And the “glycan array binding signal (z-score)” value [24]?
The value was -0.229.

What about the “glycan array binding signal (z-score)” value [25] of the same binder?
Its value is -0.223.

What about the “glycan array binding signal (z-score)” value [26] of the same binder?
The value was -0.222.

What about the “glycan array binding signal (z-score)” value (Fuc(a1-4)GlcNAc) of the same binder?
The value was -0.238.

And the “glycan array binding signal (z-score)” value (Fuc(b1-3)GlcNAc)?
The value was -0.219.

What about the “glycan array binding signal (z-score)” value (Gal(a1-2)Gal) of the same binder?
Its value is -0.229.

And the “glycan array binding signal (z-score)” value (Gal(a1-3)Gal)?
Its value is -0.231.

What about the “glycan array binding signal (z-score)” value (Gal(a1-3)Gal(b1-3)Glc) of the same binder?
The value was -0.221.

And the “glycan array binding signal (z-score)” value (Gal(a1-3)Gal(b1-3)GlcNAc)?
Its value is -0.207.

What about the “glycan array binding signal (z-score)” value (Gal(a1-3)Gal(b1-4)GlcNAc) of the same binder?
The value was -0.226.

What about the “glycan array binding signal (z-score)” value [27] of the same binder?
Its value is -0.238.

What about the “glycan array binding signal (z-score)” value (Gal(a1-3)GlcNAc) of the same binder?
Its value is -0.184.

And the “glycan array binding signal (z-score)” value [28]?
The value was -0.219.

And the “glycan array binding signal (z-score)” value (Gal(a1-4)Gal(b1-4)Gal)?
Its value is -0.222.

What about the “glycan array binding signal (z-score)” value (Gal(a1-4)Gal(b1-4)GalNAc) of the same binder?
Its value is -0.2.
